Measurements published in a collection of fitness landscapes (doi:10.1016/j.celrep.2020.107928).
Whole data set: some 81,000 sequences, median “one-hybrid fitness for binding NBS DNA” near -0.1, cut for the highest 2% near 0.36. This is one part of the list.

B1: Caulobacter ParB omega fusion; a variant is named by its letters at X, in order, B8GW30 (parent)
chain: MESVVVGEPGMSEGRRGLGRGLSALLGEVDAAPAQAPGEQLGGSREAPIEILQRNPDQPRRTFREEDLEDLSNSIREKGVLQPILVRPSPDTAGEYQIVAGERAWRAAQRAGLKTVPIMVRELDDLAVLEIGIIENVQRADLNVLEEALSYKVLMEKFERTQENIAQTIGKSXSHVANXMRLLXLPDEVQSYLVSGELTAXHARAIAAAADPVALAKQIIEGGLSVRETEALARKAPNLSAGKSKGGRPPRVKDTDTQALESDLSSVLGLDVSIDHRGSTGTLTITYATLEQLDDLCNRLTRGI

Variants of: B1
Assay: one-hybrid fitness for binding NBS DNA (the Noc-binding site; scaled: cognate 1, non-cognate 0); higher = stronger binding
Conditions: with NBS DNA site
Method in brief: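 Values were rescaled so that cognate is 1 and non-cognate is 0. Each is a fitness, the log change in a variant's read ratio to wild type from Illumina reads of plasmids before and after selection, with three replicate libraries pooled and variants under 10 reads dropped. Selection of the Caulobacter ParB libraries, four specificity codons randomised, used E. coli USO with a HIS3 reporter, site 19 bp from the promoter, on M9-minus-histidine with 0.1 mM IPTG and 5 mM 3-AT for 48 hours at 37°C.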

Row | Variant | one-hybrid fitness for binding NBS DNA
1 | EPRS | ≤ 0.2
2 | NTHF | 0.259
3 | LRTW | ≤ 0.2
4 | RLHI | ≤ 0.2
5 | SVYP | ≤ 0.2
6 | RIYS | 0.413
7 | SSPI | ≤ 0.2
8 | STLN | ≤ 0.2
9 | YAVL | ≤ 0.2
10 | RPAL | ≤ 0.2
11 | VWRY | ≤ 0.2
12 | KKPI | ≤ 0.2
13 | RTRP | ≤ 0.2
14 | TRTD | ≤ 0.2
15 | VMTG | ≤ 0.2
16 | CAQE | ≤ 0.2
17 | IAMM | ≤ 0.2
18 | KAQG | ≤ 0.2
19 | QQNP | ≤ 0.2
20 | TYWT | ≤ 0.2
21 | HRFQ | ≤ 0.2
22 | AGKN | ≤ 0.2
23 | ILHY | ≤ 0.2
24 | MFKS | ≤ 0.2
25 | HLDR | ≤ 0.2
26 | DQRY | ≤ 0.2

Row | Variant | one-hybrid fitness for binding NBS DNA
27 | IKSL | ≤ 0.2
28 | HGLT | ≤ 0.2
29 | TGAS | ≤ 0.2
30 | FIFL | ≤ 0.2
31 | RVWP | ≤ 0.2
32 | QDCL | ≤ 0.2
33 | PGAT | ≤ 0.2
34 | AQGR | ≤ 0.2
35 | QFNE | ≤ 0.2
36 | VICR | ≤ 0.2
37 | DTIG | ≤ 0.2
38 | HTSE | ≤ 0.2
39 | AWKG | ≤ 0.2
40 | AQGA | ≤ 0.2
41 | GGMS | ≤ 0.2
42 | REMC | ≤ 0.2
43 | FPNS | ≤ 0.2
44 | WPPN | ≤ 0.2
45 | DNHG | ≤ 0.2
46 | TIDY | ≤ 0.2
47 | IWTT | ≤ 0.2
48 | NIHV | ≤ 0.2
49 | NKDV | ≤ 0.2
50 | KIFG | ≤ 0.2
51 | WLLR | ≤ 0.2
52 | VTSQ | ≤ 0.2

Row | Variant | one-hybrid fitness for binding NBS DNA
53 | ITTA | ≤ 0.2
54 | GNTV | ≤ 0.2
55 | TQCG | ≤ 0.2
56 | WCRS | ≤ 0.2
57 | TELD | ≤ 0.2
58 | QNSN | ≤ 0.2
59 | YPCS | ≤ 0.2
60 | SYQF | ≤ 0.2
61 | SSNL | ≤ 0.2
62 | QTQH | 0.346
63 | DDGG | ≤ 0.2
64 | RPKN | ≤ 0.2
65 | AAAE | ≤ 0.2
66 | IARV | ≤ 0.2
67 | NFCC | ≤ 0.2
68 | YLCE | ≤ 0.2
69 | PSCG | ≤ 0.2
70 | LITR | ≤ 0.2
71 | KSGL | ≤ 0.2
72 | PPAS | ≤ 0.2
73 | MNSL | ≤ 0.2
74 | PPML | ≤ 0.2
75 | EVLS | ≤ 0.2
76 | NCNL | ≤ 0.2
77 | RKSA | 0.284
78 | CHVG | ≤ 0.2

Row | Variant | one-hybrid fitness for binding NBS DNA
79 | LDLK | ≤ 0.2
80 | DMKR | ≤ 0.2
81 | SKMS | ≤ 0.2
82 | EAPH | ≤ 0.2
83 | CPLY | ≤ 0.2
84 | SWVN | ≤ 0.2
85 | YFDP | ≤ 0.2
86 | WSMN | ≤ 0.2
87 | VTME | ≤ 0.2
88 | WTIS | ≤ 0.2
89 | PADR | ≤ 0.2
90 | RYRG | ≤ 0.2
91 | MKCG | ≤ 0.2
92 | IFAW | ≤ 0.2
93 | YCMS | ≤ 0.2
94 | KLCS | ≤ 0.2
95 | QWEC | ≤ 0.2
96 | MFRC | ≤ 0.2
97 | TANG | ≤ 0.2
98 | LCTC | ≤ 0.2
99 | EPRT | ≤ 0.2
100 | FECG | ≤ 0.2
101 | GWTR | ≤ 0.2
102 | RWPM | ≤ 0.2
103 | PNIR | ≤ 0.2
104 | VPHS | ≤ 0.2

Row | Variant | one-hybrid fitness for binding NBS DNA
105 | MPRM | ≤ 0.2
106 | MPTT | ≤ 0.2
107 | QGAW | ≤ 0.2
108 | HRGN | ≤ 0.2
109 | MCNT | ≤ 0.2
110 | CQAC | ≤ 0.2
111 | ALCS | ≤ 0.2
112 | YYTR | ≤ 0.2
113 | RLQR | 0.43
114 | SSHF | ≤ 0.2
115 | PTDC | ≤ 0.2
116 | QDLH | ≤ 0.2
117 | LKTM | ≤ 0.2
118 | LGDV | ≤ 0.2
119 | YYQP | ≤ 0.2
120 | GECR | ≤ 0.2
121 | LSQN | ≤ 0.2
122 | FKST | ≤ 0.2
123 | HHTK | ≤ 0.2
124 | HSQT | ≤ 0.2
125 | MIGG | ≤ 0.2
126 | CKQT | ≤ 0.2
127 | FCRR | 0.277
128 | GVIR | ≤ 0.2
129 | VVYS | ≤ 0.2
130 | QRSD | 0.208

Row | Variant | one-hybrid fitness for binding NBS DNA
131 | DRYS | ≤ 0.2
132 | ERWG | ≤ 0.2
133 | VEGN | ≤ 0.2
134 | WYYG | ≤ 0.2
135 | LLAA | ≤ 0.2
136 | HPAV | ≤ 0.2
137 | SNCE | ≤ 0.2
138 | NSTT | ≤ 0.2
139 | DPWI | ≤ 0.2
140 | GYLS | ≤ 0.2
141 | MTHC | ≤ 0.2
142 | VNDC | ≤ 0.2
143 | CPTW | ≤ 0.2
144 | IRKY | 0.221
145 | VVMT | ≤ 0.2
146 | NPYR | ≤ 0.2
147 | AKTY | ≤ 0.2
148 | QGLT | ≤ 0.2
149 | TIIL | ≤ 0.2
150 | HQHH | ≤ 0.2
151 | TERF | ≤ 0.2
152 | NRMF | ≤ 0.2
153 | SLTG | ≤ 0.2
